Measurements as given in the RNAGym collection of RNA variant scans (doi:10.7554/elife.90254).
Read counts are not given, so values of variants with three or more changes are uncertain.

B1: LINE1-mini (parent)
chain: GGCAGAGCUCAACACAGCGUGGCAAAGUGGCUGUGGCUAGACUGCC

Variants of: B1
Experiment: self-cleavage, relative activity (ratio to wild type); higher = more cleavage; in vitro, sequencing; the parent is a self-cleaving ribozyme

| Variant | self-cleavage |
| --- | --- |
| UGCAUAGCUCAACAAAGAGUGGCAAAGUCGCUGAGGCUAGACUGAC | 0.01 |
| UGCAUAGCUCAACACAGGGUGGCAAAGUGGCUGUGGCUAGACUGCC | 0.01 |
| UGCAUAGCUCAACACAGCGUGGCAAAUUGGCUGUGGCUAGACUGCC | 0.07 |
| UGCAUAGCUCAACACAGCGUGGCAAAGUGACUGUGGCUAGACUGCC | 0.1 |
| UGCAUAGCUCAACACAGCGUGGCAAAGUGACUGUGGGUAGACUGCC | 0.36 |
| UGCAUAGCUCAACACAGCGUGGCAAAGUGACUGUGGCUAGAGGGCC | 0 |
| UGCAUAGCUCAACACAGCGUGGCAAAGUGGCUUUGGCUAGACUGCC | 0.07 |
| UGCAUAGCUCAACACAGCGUGGCAAAGUGGCUGUGGCUAAACUGCC | 0.01 |
| UGCAUAGCGCAACACAGCGUGGCAAAGUGGCUGUGGCUAGACUGCC | 0.03 |
| UGCAUAGCUCAACACAGCGUGGCAAAGUGGCCGUGGCUAGACUGCC | 0.15 |
| UGCAGAACUCAGCACAGCGUGGCAAAGUGGCUGUGGCUAGACUGCC | 0.25 |
| UGCAGAACUCAGCACCGAGUGGCUAAGUGGCUGUGGAUAGACUGCC | 0.06 |
| UGCAGAACUGAACACAGCGUGGCAAAGUGGCUGUGGCUAGACUGCC | 0.02 |
| UGCAGAACUCAAAUCAGCGUGUCAAAGUGGCUGUGGCUAGGCUGCC | 0.03 |
| UGCAGAACUCAAAACACCGUGGCAAAGUAGCUGUGGCUAGACUGCC | 0.21 |
| UGCAGAACUCAAUACAGCGUGGCAAAGUGGCUGUGGGUAGACUGCC | 0.06 |
| UGCAGAACUCAACACAGAGGGGCAAAGUGGCUGUGGCUACACUGCC | 0.29 |
| UGCAGAACUCAACACAGCAUGGCAAAGUGGCUGCGGUUAAGUUGCC | 0.03 |
| UGCAGAACUCAACACAGCGUGCCAAAGUGGCUGUGGCUAAACUGCC | 0.06 |

| Variant | self-cleavage |
| --- | --- |
| UGCAGAACUCAACACAGCGUGGCAAAUUUGCUGUGGCUAGACUGCC | 0.14 |
| UGCAGAACUCAACACAGCGUGGCAAAGUUGCUGUGGCUAGACUGCA | 0.08 |
| UGCAGAACGCAACACAGCGUGGCAAAGUGGCUGUGGCUAGACUGCC | 0.03 |
| UGCAGAACUCAACACAGCGUGGCAAAGUGGCUGCGGCUAGACCGCC | 0.06 |
| UGCAGACCUCAACGCAGCGUGGCAAAGAGGCUGUGGCUAGACUGCC | 0.03 |
| UGCAGACCUGACCACAGCGUGGUAAAGUCGCUGUGGCUAGACGGCC | 0 |
| UGCAGACCUCAAAACAGCGUGGCAAAGUGGCUGUGGUUAGACUGCC | 0.07 |
| UGCAGACCUCAACACAGCGUGGCAAAGUUGCUGUGGCUAGACUGCC | 0.08 |
| UGCAGACCUCAACACAGCGUGGCAAAGUGGCUGUGGCUAUACUGCC | 0.07 |
| UGCAGACCGCAACACAGCGUGGCAAAGUGGCUGUCGCUAGACUGCC | 0.02 |
| UGCAGAUCUCAGCACAGCGUGGCAAAGUGGCUGUGGCUAGACUGCC | 0.02 |
| UGCAGAUCUCAACACAGCGUGGCAAAGUGGGUGUGGCUUGACUGCC | 0.09 |
| UGCAGAUCUCAACACACCGUGGCAAAGUGGAUGUGGCUAGACUGCC | 0.01 |
| UGCAGAUCUCAACACAUCGUGUCAAAGUGGCUGUGGCUAGACGGCC | 0 |
| UGCAGAUCUCAACACAGCCUGGCAAAGUGGCUGUGGCUAGACUGCC | 0.03 |
| UGCAGAUCGCAACACAGCGUGGCAGAGUGGCUGUGGGUAGACUUCC | 0.08 |
| UGCAGAUCGCAACACAGCGUAGCAAAGUGGCUGUGGCUAGACUGCC | 0.02 |
| UGCAGAUCUCAACACAGCGUGGCAAAGCUGCUGUGGCUAGACUGCC | 0.02 |
| UGCAGAGCUCAACACAACGUGGCAAAGUGGCUGUGGCUAGGCUGCC | 0.02 |

| Variant | self-cleavage |
| --- | --- |
| UGCAGAGCUCAACACAAAAUGGCAAAGCGGCUGUGGCUAGACUCCC | 0.04 |
| UGCAGAGCUCAACACAACGUGGCAAAGUGGCUGUGGCUAGAAUGCC | 0.03 |
| UGCAGAGCUCAACACAACGUGGCAAAGUGGCUGUGGCUAGAUUGCC | 0.06 |
| UGCAGAGCUCAACACAACGUUGCAAAGUAGCUGUGGCUAGACUGCC | 0.13 |
| UGCAGAGCUCAACACAACGUGGCAAAGUGGCUCUGGCUAGACUGCC | 0 |
| UGCAGAGCUCAACACAACGUGGCAAAGUGGCUGUCGCUAGACUGCC | 0.05 |
| UGCAGAGCUCAACACAACGAAGCCAAGUGGCUGUGGCUAGACUGCC | 0.49 |
| UGCAGAGCUCAACACACCGUGGAAAAGUGGCUCUGGCUAGACUACC | 0.08 |
| UGCAGAGCUCAACACACCGUGUCAAAGUGGCUGUGGCUAGACUGCC | 1.28 |
| UGCAGAGCUCAACACACCGUGGCAAAGUGACUGUGGCUAGAUUACC | 0.03 |
| UGCAGAGCUCAACACACCGUGGCAAAGUGGCUGUGACUAGACUGCC | 0.11 |
| UGCAGAGCUCAACACAUCGUGGCGAGGUGGCUGUGGCUAGACUGCC | 0.08 |
| UGCAGAGCUCAACACAUCGUGGCAAUGUGGCUGUCGCUAGGCUGUC | 0.01 |
| UGCAGAGCUCAACACAGCAUGGCAAAGUGGCUGUGGCUAGACUGCA | 0.6 |
| UGCAGAGCUCAACACAGCAUGGCAAAGUGGCUUUGGCCAGACUGCC | 0.01 |
| UGCAGAGCUCAACACAGCAGGGCAAAGUGGCUGUGGCUAGACUGCC | 0.25 |
| UGCAGAGCUCAACACAGCCUGGCAAGGUGGCUGUGGCGAGACUGCC | 0 |
| UGCAGAGCUCAACACAGCCUGGAAAAGUGGCUGUGGCUAGACUGCC | 0.1 |
